Measurements reported in PubChem BioAssay AID493005 (National Center for Advancing Translational Sciences (NCATS), 2010).
The campaign covered roughly 340,000 compounds. Fewer than 10 were called active. This list was built around the results that the source calls inconclusive (neither active nor inactive); the mix of calls is not that of the screen. The call rests on the fitted dose curve; in most records, active means well fitted inhibition curve with a large enough effect in the main read-out, with a control signal flat (not every such curve was filed as active); inconclusive means small, poorly fitted or top-dose-only effect, or effect the other way, or a change in a side signal; inactive means no such curve, though single readings can be large or run the other way. Where the call is inconclusive, the potency comes from a doubtful curve fit. A note “side channel” means that the fit belongs to a control or component signal, not to the main read-out.

Target: Tumor susceptibility gene 101 protein (Homo sapiens) (UniProt Q99816)
Assay: qHTS Assay for Iinhibitors of HIV-1 Budding by Blocking the Interaction of PTAP/TSG101
Conditions: Fluorescence polarization, FITC-PTAP peptide / Tsg101 binding; series mostly up to 115 µM
In short: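 Steps: Tsg101 binding domain dispensed (10 uM final), compounds pinned in DMSO, FITC-labeled PTAP-motif peptide added (50 nM final); after 20 min binding at room temperature, polarization measured.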
Potency means the concentration at half of the fitted maximal effect; tags describe the fitted curve by direction and shape or compound fluorescence and quenching.

Chain of UniProt Q99816 (Q99816 whole entry, looked up): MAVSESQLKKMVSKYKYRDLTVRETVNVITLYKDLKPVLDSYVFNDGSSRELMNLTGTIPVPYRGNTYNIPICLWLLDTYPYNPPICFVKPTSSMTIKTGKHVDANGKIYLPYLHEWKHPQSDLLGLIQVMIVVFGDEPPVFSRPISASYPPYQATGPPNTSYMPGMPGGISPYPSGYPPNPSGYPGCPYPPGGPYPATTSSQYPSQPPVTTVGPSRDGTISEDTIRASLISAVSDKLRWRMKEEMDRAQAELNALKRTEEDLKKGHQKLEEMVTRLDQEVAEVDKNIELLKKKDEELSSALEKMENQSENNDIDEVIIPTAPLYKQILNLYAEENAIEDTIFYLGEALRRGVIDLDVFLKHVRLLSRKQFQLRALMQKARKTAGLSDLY

SMILES | Potency
COc1cccc2c1C(=O)c1c(O)c3c(c(O)c1C2=O)C[C@](O)(C(C)=O)C[C@H]3O[C@@H]1C[C@@H](N)[C@@H](O)[C@@H](C)O1 | inconclusive: 56.2 µM [fluorescent, side channel, partial curve, poor fit]
CCN1CC=C2C(C#N)=C(N)C(C#N)(C#N)C(c3cc(Cl)ccc3Cl)C2C1 (stereo not given) | inconclusive: 70.8 µM [fluorescent, side channel, partial curve]
CCc1c(C)nc(SCC(=O)c2cccs2)c(C#N)c1C | inconclusive: 50.1 µM [fluorescent, side channel, partial curve, poor fit]
COc1ccc(OC)c(CCNC(=O)Cn2nc(C)c3c(C)n(-c4ccc(C)cc4)nc3c2=O)c1 | inactive
CC1=C(C(=O)Nc2ccccc2C)C(c2ccc(C)o2)n2c(s/c(=C/c3ccccc3)c2=O)=N1 (stereo not given) | inactive
N#CC1=C(N)OC2=C(CC/C2=C\c2ccccc2)C1c1ccccc1 (stereo not given) | inconclusive: 3.98 µM [fluorescent, side channel, full curve, poor fit]
COc1ccc(OCC(O)CNC(=O)c2ccc(Br)cc2)cc1 (stereo not given) | inactive
Cc1csc(NC(=O)CCC(=O)N(CC(=O)NC2CCCC2)Cc2ccccc2)n1 | inconclusive: 39.8 µM [fluorescent, side channel, partial curve]
Cc1nc2nc(-c3cccs3)cn2nc1C | inconclusive: 56.2 µM [falling, partial curve, poor fit]
O=C(N/N=C/c1cc(Br)cc(Br)c1O)c1ccncc1 | inconclusive: 56.2 µM [fluorescent, side channel, partial curve, poor fit]
CCCN1CCCc2cc(CN)ccc21 | inconclusive: 89.1 µM [fluorescent, side channel, partial curve, poor fit]
CC(=O)N1CC=C2C(C#N)=C(N)C(C#N)(C#N)C(C)C2C1 (stereo not given) | inactive
O=C(/C=C\c1ccccc1OC(=O)c1ccccc1F)c1cc2ccccc2o1 | inactive
Cc1ccc(Nc2ccc([N+](=O)[O-])ccc2=O)cc1 | inconclusive: 79.4 µM [falling, partial curve, poor fit]
O=C(NCc1ccc(OC(F)(F)F)cc1)c1cccc2c1C(=O)c1ccc(N3CCCC3)cc1S2(=O)=O | inconclusive: 79.4 µM [fluorescent, side channel, partial curve]
C=CCN(C(=O)CSc1nc2ccsc2c(=O)n1Cc1ccccn1)c1ccccc1 | inactive
Cc1ccc(N=Nc2[nH]c3ccccc3c2O)cc1 | inconclusive: 89.1 µM [fluorescent, side channel, single point]
CC1=CC(C)(C)N(C(=O)CN2C(=O)CCC2=O)c2ccc(C)cc21 | inactive
CCNc1ccc2noc3c2c1C(=O)c1ccccc1-3 | inconclusive: 15.8 µM [fluorescent, side channel, full curve]
CN1CC=C2C(C#N)=C(N)C(C#N)(C#N)[C@H](c3cccs3)[C@H]2C1 | inconclusive: 50.1 µM [fluorescent, side channel, partial curve, poor fit]

SMILES | Potency
O=C(NNc1ccccc1Br)C(O)(c1cccc(C(F)(F)F)c1)c1cccc(C(F)(F)F)c1 | inconclusive: 22.4 µM [quencher, side channel, partial curve, poor fit]
CN(C)c1ccc(/C=C(/C#N)C(=O)NCc2ccccc2)o1 | inconclusive: 56.2 µM [fluorescent, side channel, partial curve, poor fit]
O=C1c2ccccc2-c2onc3c(N4CCN(CCO)CC4)cc(N4CCN(C(=O)c5ccco5)CC4)c1c23 | inconclusive: 39.8 µM [fluorescent, side channel, partial curve, poor fit]
CCN1/C(=C2\OC(=S)N(C)C2=O)C=Cc2ccccc21 | inconclusive: 50.1 µM [fluorescent, side channel, partial curve, poor fit]
CC1CCCCN1CC(O)COCc1ccc(Cl)cc1 (stereo not given) | inconclusive: 56.2 µM [fluorescent, side channel, partial curve]
COc1ccc(C(=O)/C=C2/C(=O)Nc3ccccc32)c(OC)c1 | inactive
C/C(=N\NC(=O)c1ccc(Cl)c(Cl)c1)c1ccccn1 | inactive
Oc1c(C=Nc2ccccc2)sc2ccccc12 | inconclusive: 79.4 µM [falling, partial curve, poor fit]
Cc1ccccc1NC(=S)N(Cc1ccccn1)Cc1ccccc1Cl | inactive
O=C1/C(=C2\C(=O)N(Cc3ccc(F)cc3)c3ccccc32)SC(=S)N1CCS(=O)(=O)O | inactive
COc1ccc2c(c1)c(/C=C/c1cc[n+](C)cc1)cn2C | inconclusive: 89.1 µM [fluorescent, side channel, partial curve, poor fit]
CC(Oc1ccc(Cl)cc1Cl)C(=O)NCCCn1ccnc1 (stereo not given) | inactive
CC1CCCN(Cc2c(O)ccc3c2O/C(=C\c2ccco2)C3=O)C1 (stereo not given) | inconclusive: 56.2 µM [fluorescent, side channel, partial curve, poor fit]
COc1ccc(-c2nnc(SCC(=O)c3cccs3)o2)cc1 | inactive
O=C1/C(=C/c2c[nH]c3ccccc23)CCC/C1=C\c1c[nH]c2ccccc12 | inconclusive: 35.5 µM [fluorescent, side channel, partial curve]
CCC(C)[C@H](NC(=O)C1CC(=O)N(c2ccc3c(c2)OCO3)C1)C(=O)NC1CCCCC1 (stereo not given in full) | inconclusive: 56.2 µM [fluorescent, side channel, partial curve, poor fit]
CCCNC(=O)Cn1c(=O)/c(=C/c2ccc(-c3cccc([N+](=O)[O-])c3)o2)s/c1=C\C(=O)C(C)(C)C | inconclusive: 44.7 µM [fluorescent, side channel, partial curve, poor fit]
CC1C2C(C)N(C)C(=O)N(C)C2N(C)C(=O)N1C (stereo not given) | inconclusive: 50.1 µM [fluorescent, partial curve, poor fit]
CCCCCCc1cc2cc(C(=O)NC)c(=N)oc2cc1O | inconclusive: 35.5 µM [fluorescent, side channel, partial curve]
COc1ccc(N=Cc2c(O)c3ccccc3n2C(C)=O)cc1 | inconclusive: 35.5 µM [fluorescent, side channel, partial curve]

SMILES | Potency
CCCCOc1ccccc1Cn1c(=O)oc2ccccc21 | inactive
CN1CC=C2C(C#N)=C(N)C(C#N)(C#N)C(CCc3ccccc3)C2C1 (stereo not given) | inconclusive: 50.1 µM [fluorescent, partial curve, poor fit]
COc1cc(/C=C2/C(=O)c3cccc([N+](=O)[O-])c3C2=O)c(Br)cc1O | inactive
C/C(=N\NC(=O)c1c(Br)c(C)nn1C)c1ccc(NC(=O)c2ccoc2C)cc1 | inconclusive: 89.1 µM [fluorescent, side channel, single point]
Cc1cc(C)n(-c2nc(SCCN(C)C)c3c4c(sc3n2)COC(C)(C)C4)n1 | inactive
O=C(c1csc(Nc2cccc3ccccc23)n1)N1CCCC1 | inactive
Cc1ccc(C(=O)NN2C(=O)/C(=C/c3cccn3C)SC2=S)cc1 | inconclusive: 89.1 µM [fluorescent, side channel, single point]
COc1ccc(NC(=S)NCCc2ccccc2OC)c(OC)c1 | inactive
COc1cc(CN(CCN(C)C)Cc2ccccc2)ccc1OCc1ccccc1 | inactive
Cc1oc2cc(O)ccc2c(=O)c1-c1nncn1-c1ccccc1 | inconclusive: 50.1 µM [fluorescent, partial curve, poor fit]
Nc1cnccc1C(=O)O | inconclusive: 56.2 µM [fluorescent, side channel, partial curve, poor fit]
N#Cc1c(C#N)c(O)c2ccccc2c1O | inconclusive: 56.2 µM [fluorescent, partial curve, poor fit]
C=CCN1C(=O)/C(=C\C=C2\N(C)c3ccccc3C2(C)C)SC1=S | inconclusive: 12.6 µM [fluorescent, side channel, full curve, poor fit]
CCc1nc(SCC(=O)NCCc2ccccc2)c2oc3ccccc3c2n1 | inactive
COc1ccccc1NC(=O)c1sc2nc(Cc3ccccc3)cc(C(F)(F)F)c2c1N | inconclusive: 70.8 µM [fluorescent, side channel, partial curve, poor fit]
COC(=O)CN1C(=O)S/C(=C/c2ccc(N3CCCCC3)o2)C1=O | inconclusive: 39.8 µM [fluorescent, side channel, partial curve]
Cc1n[nH]c(C)c1N1C(=O)c2cccc3c(N4CCCCCC4)ccc(c23)C1=O | inconclusive: 56.2 µM [fluorescent, side channel, partial curve, poor fit]
CCCCn1c(N)c(N(Cc2ccccc2OC)C(=O)c2ccc([N+](=O)[O-])s2)c(=O)[nH]c1=O | inactive
CCN(CC)c1ccc(C=C2SC(=S)NC2=O)cc1 | inconclusive: 20 µM [fluorescent, side channel, full curve, poor fit]
CC(C)(C)OC(=O)NC(Cc1ccccc1)C(=O)N1CCC(C(=O)NCC(=O)Nc2ccc(F)cc2)CC1 (stereo not given) | inconclusive: 56.2 µM [fluorescent, partial curve, poor fit]
